± gives the standard error. This sample is rich in variants without activity.
B1: glmS ribozyme (parent)
chain: AUAAAAGCGCCAGAACUACAGAAAUGUAGUUGACGAGGAGGAGGUUUAUCGAAUUUUCGGCGGAUGCCUCCAAA

Assays:
Conditions in all cases: with glucosamine-6-phosphate
glucosamine-6-phosphate [1] = variants of: B1; assay: kcat; higher = faster cleavage; RNA array
Procedure, shortened: (§1)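 Barcoded glmS ribozyme variants on sequenced MiSeq chips were transcribed in situ by E. coli RNA polymerase and tracked through a hybridised Cy3 probe at 37 °C. Glucosamine-6-phosphate (40 μM to 10 mM) in HEPES/KCl/Mg(OAc)2 buffer was flowed in, and tiles were imaged over ~14 h. Signals were normalised to baseline and to non-cleaving reference variants; per-tile medians were fit to one- or two-exponential decays to give kobs. kcat and KM came from weighted Michaelis–Menten fits across concentrations.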

glucosamine-6-phosphate [2] = variants of: B1; assay: self-cleavage kobs at 160 uM GlcN6P; higher = faster cleavage; RNA array
Procedure, shortened: as §1

glucosamine-6-phosphate [3] = variants of: B1; assay: self-cleavage kobs at 2500 uM GlcN6P; higher = faster cleavage; RNA array
Procedure, shortened: as §1

glucosamine-6-phosphate [4] = variants of: B1; assay: self-cleavage kobs at 10000 uM GlcN6P; higher = faster cleavage; RNA array
Procedure, shortened: as §1

glucosamine-6-phosphate [5] = variants of: B1; assay: self-cleavage kobs at 40 uM GlcN6P; higher = faster cleavage; RNA array
Procedure, shortened: as §1

glucosamine-6-phosphate [6] = variants of: B1; assay: self-cleavage kobs at 640 uM GlcN6P; higher = faster cleavage; RNA array
Procedure, shortened: as §1

## A33G C61A
glucosamine-6-phosphate [1]
  kcat: < 1e-05 s⁻¹
glucosamine-6-phosphate [2]
  self-cleavage kobs at 160 uM GlcN6P: < 1e-05 s⁻¹
glucosamine-6-phosphate [3]
  self-cleavage kobs at 2500 uM GlcN6P: < 1e-05 s⁻¹
glucosamine-6-phosphate [4]
  self-cleavage kobs at 10000 uM GlcN6P: < 1e-05 s⁻¹

## U49G C50U
glucosamine-6-phosphate [1]
  kcat: < 1e-05 s⁻¹
glucosamine-6-phosphate [2]
  self-cleavage kobs at 160 uM GlcN6P: < 1e-05 s⁻¹

## A6C G32C A36G
glucosamine-6-phosphate [5]
  self-cleavage kobs at 40 uM GlcN6P: < 1e-05 s⁻¹
glucosamine-6-phosphate [4]
  self-cleavage kobs at 10000 uM GlcN6P: < 1e-05 s⁻¹

## A6G C16G
glucosamine-6-phosphate [5]
  self-cleavage kobs at 40 uM GlcN6P: < 1e-05 s⁻¹
glucosamine-6-phosphate [6]
  self-cleavage kobs at 640 uM GlcN6P: < 1e-05 s⁻¹
glucosamine-6-phosphate [2]
  self-cleavage kobs at 160 uM GlcN6P: < 1e-05 s⁻¹
glucosamine-6-phosphate [4]
  self-cleavage kobs at 10000 uM GlcN6P: 3.38e-05 ± 8.1e-06 s⁻¹

## A6C A15C U54C C71U
glucosamine-6-phosphate [5]
  self-cleavage kobs at 40 uM GlcN6P: < 1e-05 s⁻¹

## C61A G63C
glucosamine-6-phosphate [1]
  kcat: < 1e-05 s⁻¹

## A6C C10G G32A A39G U65G
glucosamine-6-phosphate [5]
  self-cleavage kobs at 40 uM GlcN6P: < 1e-05 s⁻¹
glucosamine-6-phosphate [6]
  self-cleavage kobs at 640 uM GlcN6P: < 1e-05 s⁻¹
glucosamine-6-phosphate [3]
  self-cleavage kobs at 2500 uM GlcN6P: < 1e-05 s⁻¹

## A6U G40U
glucosamine-6-phosphate [5]
  self-cleavage kobs at 40 uM GlcN6P: < 1e-05 s⁻¹

## A6C U55G U69C
glucosamine-6-phosphate [5]
  self-cleavage kobs at 40 uM GlcN6P: < 1e-05 s⁻¹
glucosamine-6-phosphate [6]
  self-cleavage kobs at 640 uM GlcN6P: < 1e-05 s⁻¹

## A6C U46C
glucosamine-6-phosphate [5]
  self-cleavage kobs at 40 uM GlcN6P: < 1e-05 s⁻¹
glucosamine-6-phosphate [6]
  self-cleavage kobs at 640 uM GlcN6P: < 1e-05 s⁻¹
glucosamine-6-phosphate [2]
  self-cleavage kobs at 160 uM GlcN6P: < 1e-05 s⁻¹

## A53G G62U
glucosamine-6-phosphate [1]
  kcat: < 1e-05 s⁻¹
glucosamine-6-phosphate [5]
  self-cleavage kobs at 40 uM GlcN6P: < 1e-05 s⁻¹
glucosamine-6-phosphate [4]
  self-cleavage kobs at 10000 uM GlcN6P: < 1e-05 s⁻¹

## A36C G38C
glucosamine-6-phosphate [1]
  kcat: < 1e-05 s⁻¹
glucosamine-6-phosphate [4]
  self-cleavage kobs at 10000 uM GlcN6P: < 1e-05 s⁻¹

## A14C A15U G26U U30G U47G U57A
glucosamine-6-phosphate [1]
  kcat: < 1e-05 s⁻¹

## G7C A12C
glucosamine-6-phosphate [5]
  self-cleavage kobs at 40 uM GlcN6P: < 1e-05 s⁻¹
glucosamine-6-phosphate [2]
  self-cleavage kobs at 160 uM GlcN6P: < 1e-05 s⁻¹
glucosamine-6-phosphate [3]
  self-cleavage kobs at 2500 uM GlcN6P: < 1e-05 s⁻¹
glucosamine-6-phosphate [4]
  self-cleavage kobs at 10000 uM GlcN6P: < 1e-05 s⁻¹

## A36U C70U
glucosamine-6-phosphate [1]
  kcat: < 1e-05 s⁻¹
glucosamine-6-phosphate [5]
  self-cleavage kobs at 40 uM GlcN6P: < 1e-05 s⁻¹

## A6G G7U C61G
glucosamine-6-phosphate [5]
  self-cleavage kobs at 40 uM GlcN6P: < 1e-05 s⁻¹

## G7C A42U U46A G51U C67U C70U
glucosamine-6-phosphate [5]
  self-cleavage kobs at 40 uM GlcN6P: < 1e-05 s⁻¹
glucosamine-6-phosphate [4]
  self-cleavage kobs at 10000 uM GlcN6P: < 1e-05 s⁻¹

## G29U C61U
glucosamine-6-phosphate [1]
  kcat: < 1e-05 s⁻¹
glucosamine-6-phosphate [5]
  self-cleavage kobs at 40 uM GlcN6P: < 1e-05 s⁻¹
glucosamine-6-phosphate [6]
  self-cleavage kobs at 640 uM GlcN6P: < 1e-05 s⁻¹
glucosamine-6-phosphate [4]
  self-cleavage kobs at 10000 uM GlcN6P: < 1e-05 s⁻¹

## A1C U56G
glucosamine-6-phosphate [5]
  self-cleavage kobs at 40 uM GlcN6P: 0.000433 ± 9.4e-05 s⁻¹

## G7A C10G C50U
glucosamine-6-phosphate [5]
  self-cleavage kobs at 40 uM GlcN6P: < 1e-05 s⁻¹

## A15G G63U
glucosamine-6-phosphate [1]
  kcat: < 1e-05 s⁻¹
glucosamine-6-phosphate [2]
  self-cleavage kobs at 160 uM GlcN6P: < 1e-05 s⁻¹
glucosamine-6-phosphate [4]
  self-cleavage kobs at 10000 uM GlcN6P: < 1e-05 s⁻¹

## A6C A64C C71U
glucosamine-6-phosphate [5]
  self-cleavage kobs at 40 uM GlcN6P: < 1e-05 s⁻¹
glucosamine-6-phosphate [6]
  self-cleavage kobs at 640 uM GlcN6P: < 1e-05 s⁻¹
glucosamine-6-phosphate [4]
  self-cleavage kobs at 10000 uM GlcN6P: < 1e-05 s⁻¹

## G7A G51A C67A
glucosamine-6-phosphate [5]
  self-cleavage kobs at 40 uM GlcN6P: < 1e-05 s⁻¹
glucosamine-6-phosphate [4]
  self-cleavage kobs at 10000 uM GlcN6P: < 1e-05 s⁻¹

## G51U U65G
glucosamine-6-phosphate [1]
  kcat: < 1e-05 s⁻¹
glucosamine-6-phosphate [5]
  self-cleavage kobs at 40 uM GlcN6P: < 1e-05 s⁻¹
glucosamine-6-phosphate [6]
  self-cleavage kobs at 640 uM GlcN6P: < 1e-05 s⁻¹
glucosamine-6-phosphate [2]
  self-cleavage kobs at 160 uM GlcN6P: < 1e-05 s⁻¹
glucosamine-6-phosphate [4]
  self-cleavage kobs at 10000 uM GlcN6P: < 1e-05 s⁻¹

## G38A C68U
glucosamine-6-phosphate [1]
  kcat: < 1e-05 s⁻¹
glucosamine-6-phosphate [5]
  self-cleavage kobs at 40 uM GlcN6P: < 1e-05 s⁻¹
glucosamine-6-phosphate [6]
  self-cleavage kobs at 640 uM GlcN6P: < 1e-05 s⁻¹
glucosamine-6-phosphate [2]
  self-cleavage kobs at 160 uM GlcN6P: < 1e-05 s⁻¹

## A6U C11G A14C
glucosamine-6-phosphate [5]
  self-cleavage kobs at 40 uM GlcN6P: < 1e-05 s⁻¹
glucosamine-6-phosphate [6]
  self-cleavage kobs at 640 uM GlcN6P: < 1e-05 s⁻¹
glucosamine-6-phosphate [2]
  self-cleavage kobs at 160 uM GlcN6P: < 1e-05 s⁻¹
glucosamine-6-phosphate [4]
  self-cleavage kobs at 10000 uM GlcN6P: < 1e-05 s⁻¹

## A6U A23C U30G
glucosamine-6-phosphate [5]
  self-cleavage kobs at 40 uM GlcN6P: < 1e-05 s⁻¹

## A6G C34G G59U
glucosamine-6-phosphate [5]
  self-cleavage kobs at 40 uM GlcN6P: < 1e-05 s⁻¹

## G7A C50U
glucosamine-6-phosphate [5]
  self-cleavage kobs at 40 uM GlcN6P: < 1e-05 s⁻¹
glucosamine-6-phosphate [6]
  self-cleavage kobs at 640 uM GlcN6P: < 1e-05 s⁻¹
glucosamine-6-phosphate [2]
  self-cleavage kobs at 160 uM GlcN6P: < 1e-05 s⁻¹
glucosamine-6-phosphate [3]
  self-cleavage kobs at 2500 uM GlcN6P: < 1e-05 s⁻¹
glucosamine-6-phosphate [4]
  self-cleavage kobs at 10000 uM GlcN6P: < 1e-05 s⁻¹

## A6U C58U
glucosamine-6-phosphate [5]
  self-cleavage kobs at 40 uM GlcN6P: < 1e-05 s⁻¹
glucosamine-6-phosphate [6]
  self-cleavage kobs at 640 uM GlcN6P: < 1e-05 s⁻¹
glucosamine-6-phosphate [2]
  self-cleavage kobs at 160 uM GlcN6P: < 1e-05 s⁻¹
glucosamine-6-phosphate [3]
  self-cleavage kobs at 2500 uM GlcN6P: < 1e-05 s⁻¹
glucosamine-6-phosphate [4]
  self-cleavage kobs at 10000 uM GlcN6P: < 1e-05 s⁻¹

## A33G G37C
glucosamine-6-phosphate [1]
  kcat: < 1e-05 s⁻¹
glucosamine-6-phosphate [5]
  self-cleavage kobs at 40 uM GlcN6P: < 1e-05 s⁻¹
glucosamine-6-phosphate [2]
  self-cleavage kobs at 160 uM GlcN6P: < 1e-05 s⁻¹

## U57A A64C
glucosamine-6-phosphate [1]
  kcat: < 1e-05 s⁻¹
glucosamine-6-phosphate [6]
  self-cleavage kobs at 640 uM GlcN6P: < 1e-05 s⁻¹

## A6C A12C
glucosamine-6-phosphate [5]
  self-cleavage kobs at 40 uM GlcN6P: < 1e-05 s⁻¹

## G40A G59A
glucosamine-6-phosphate [1]
  kcat: < 1e-05 s⁻¹
glucosamine-6-phosphate [5]
  self-cleavage kobs at 40 uM GlcN6P: < 1e-05 s⁻¹
glucosamine-6-phosphate [6]
  self-cleavage kobs at 640 uM GlcN6P: < 1e-05 s⁻¹

## G38A U69C
glucosamine-6-phosphate [1]
  kcat: < 1e-05 s⁻¹

## A6G G38C C71G
glucosamine-6-phosphate [5]
  self-cleavage kobs at 40 uM GlcN6P: < 1e-05 s⁻¹
glucosamine-6-phosphate [3]
  self-cleavage kobs at 2500 uM GlcN6P: < 1e-05 s⁻¹

## G43C C70A
glucosamine-6-phosphate [1]
  kcat: < 1e-05 s⁻¹
glucosamine-6-phosphate [5]
  self-cleavage kobs at 40 uM GlcN6P: < 1e-05 s⁻¹
glucosamine-6-phosphate [6]
  self-cleavage kobs at 640 uM GlcN6P: < 1e-05 s⁻¹
glucosamine-6-phosphate [4]
  self-cleavage kobs at 10000 uM GlcN6P: < 1e-05 s⁻¹

## G7A C16U U47A
glucosamine-6-phosphate [5]
  self-cleavage kobs at 40 uM GlcN6P: < 1e-05 s⁻¹

## A36G G38C G51U G66U C68A
glucosamine-6-phosphate [1]
  kcat: < 1e-05 s⁻¹
glucosamine-6-phosphate [3]
  self-cleavage kobs at 2500 uM GlcN6P: < 1e-05 s⁻¹

## G7A U47G
glucosamine-6-phosphate [5]
  self-cleavage kobs at 40 uM GlcN6P: < 1e-05 s⁻¹
glucosamine-6-phosphate [6]
  self-cleavage kobs at 640 uM GlcN6P: < 1e-05 s⁻¹
glucosamine-6-phosphate [2]
  self-cleavage kobs at 160 uM GlcN6P: < 1e-05 s⁻¹

## A36G U69C
glucosamine-6-phosphate [1]
  kcat: < 1e-05 s⁻¹
glucosamine-6-phosphate [2]
  self-cleavage kobs at 160 uM GlcN6P: < 1e-05 s⁻¹

## A6G G51C G59U
glucosamine-6-phosphate [5]
  self-cleavage kobs at 40 uM GlcN6P: < 1e-05 s⁻¹

## C50U G62A
glucosamine-6-phosphate [1]
  kcat: < 1e-05 s⁻¹
glucosamine-6-phosphate [4]
  self-cleavage kobs at 10000 uM GlcN6P: < 1e-05 s⁻¹

## G7C A42C
glucosamine-6-phosphate [5]
  self-cleavage kobs at 40 uM GlcN6P: < 1e-05 s⁻¹

## G7A G40A G62A C67U
glucosamine-6-phosphate [5]
  self-cleavage kobs at 40 uM GlcN6P: < 1e-05 s⁻¹
glucosamine-6-phosphate [6]
  self-cleavage kobs at 640 uM GlcN6P: < 1e-05 s⁻¹
glucosamine-6-phosphate [3]
  self-cleavage kobs at 2500 uM GlcN6P: < 1e-05 s⁻¹
glucosamine-6-phosphate [4]
  self-cleavage kobs at 10000 uM GlcN6P: < 1e-05 s⁻¹

## A6G G51U U65A
glucosamine-6-phosphate [5]
  self-cleavage kobs at 40 uM GlcN6P: < 1e-05 s⁻¹
glucosamine-6-phosphate [4]
  self-cleavage kobs at 10000 uM GlcN6P: < 1e-05 s⁻¹

## U31C A42C
glucosamine-6-phosphate [1]
  kcat: < 1e-05 s⁻¹
glucosamine-6-phosphate [5]
  self-cleavage kobs at 40 uM GlcN6P: < 1e-05 s⁻¹
glucosamine-6-phosphate [2]
  self-cleavage kobs at 160 uM GlcN6P: < 1e-05 s⁻¹

## A6U G29U A39U G43U C61A C67U
glucosamine-6-phosphate [5]
  self-cleavage kobs at 40 uM GlcN6P: < 1e-05 s⁻¹
glucosamine-6-phosphate [4]
  self-cleavage kobs at 10000 uM GlcN6P: < 1e-05 s⁻¹

## A6G G38U C68U
glucosamine-6-phosphate [5]
  self-cleavage kobs at 40 uM GlcN6P: < 1e-05 s⁻¹
glucosamine-6-phosphate [3]
  self-cleavage kobs at 2500 uM GlcN6P: < 1e-05 s⁻¹

## A6G A42C G43A G44C C50U A52C
glucosamine-6-phosphate [5]
  self-cleavage kobs at 40 uM GlcN6P: < 1e-05 s⁻¹
glucosamine-6-phosphate [6]
  self-cleavage kobs at 640 uM GlcN6P: < 1e-05 s⁻¹
glucosamine-6-phosphate [2]
  self-cleavage kobs at 160 uM GlcN6P: < 1e-05 s⁻¹
glucosamine-6-phosphate [3]
  self-cleavage kobs at 2500 uM GlcN6P: < 1e-05 s⁻¹
glucosamine-6-phosphate [4]
  self-cleavage kobs at 10000 uM GlcN6P: < 1e-05 s⁻¹

Source: the supplement of paper PMC7125110
